# The list shows a part of the results.
# B1: ABA (Agaricus bisporus), Q00022 (protein)
# chain: MTYTISIRVYQTTPKGFFRPVERTNWKYANGGTWDEVRGEYVLTMGGSGTSGSLRFVSSDTDESFVATFGVHNYKRWCDIVTNLTNEQTALVINQEYYGVPIRDQARENQLTSYNVANAKGRRFAIEYTVTEGDNLKANLIIG
# Key:
# Assay in all cases: glycan array binding signal (z-score within array); higher = stronger binding
# Details in all cases: glycan notation: IUPAC condensed, linker removed
# [1] = biological target: Gal(b1-4)GlcNAc(b1-3)Gal(b1-3)GalNAc
# Method in brief: (§1)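 Glycan array data were curated from 3228 arrays in the Consortium for Functional Glycomics database and kept only where the protein sequence was available. Glycan names were converted to IUPAC-condensed notation, and columns mapping to the same glycan were averaged. The binding signal is a within-array Z-score, averaged across arrays of the same protein sequence at different concentrations or buffers and across linkers. Negative Z-scores can be read as non-binding.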
# [2] = biological target: Gal(b1-4)GlcNAc(b1-3)Gal(b1-3)GlcNAc
# Method in brief: as §1
# [3] = biological target: Gal(b1-4)GlcNAc(b1-3)Gal(b1-4)Glc
# Method in brief: as §1
# [4] = biological target: Gal(b1-4)GlcNAc(b1-3)Gal(b1-4)GlcNAc
# Method in brief: as §1
# [5] = biological target: Gal(b1-4)GlcNAc(b1-3)Gal(b1-4)GlcNAc(b1-2)Man(a1-3)[Gal(b1-4)GlcNAc(b1-3)Gal(b1-4)GlcNAc(b1-2)Man(a1-6)]Man(b1-4)GlcNAc(b1-4)GlcNAc
# Method in brief: as §1
# [6] = biological target: Gal(b1-4)GlcNAc(b1-3)Gal(b1-4)GlcNAc(b1-2)Man(a1-3)[Gal(b1-4)GlcNAc(b1-3)Gal(b1-4)GlcNAc(b1-2)Man(a1-6)]Man(b1-4)GlcNAc(b1-4)[Fuc(a1-6)]GlcNAc
# Method in brief: as §1
# [7] = biological target: Gal(b1-4)GlcNAc(b1-3)Gal(b1-4)GlcNAc(b1-2)[Gal(b1-4)GlcNAc(b1-3)Gal(b1-4)GlcNAc(b1-6)]Man(a1-6)[Gal(b1-4)GlcNAc(b1-3)Gal(b1-4)GlcNAc(b1-2)Man(a1-3)]Man(b1-4)GlcNAc(b1-4)GlcNAc
# Method in brief: as §1
# [8] = biological target: Gal(b1-4)GlcNAc(b1-3)Gal(b1-4)GlcNAc(b1-2)[Gal(b1-4)GlcNAc(b1-3)Gal(b1-4)GlcNAc(b1-6)]Man(a1-6)[Gal(b1-4)GlcNAc(b1-3)Gal(b1-4)GlcNAc(b1-2)Man(a1-3)]Man(b1-4)GlcNAc(b1-4)[Fuc(a1-6)]GlcNAc
# Method in brief: as §1
# [9] = biological target: Gal(b1-4)GlcNAc(b1-3)Gal(b1-4)GlcNAc(b1-3)Gal(b1-4)GlcNAc
# Method in brief: as §1
# [10] = biological target: Gal(b1-4)GlcNAc(b1-3)Gal(b1-4)GlcNAc(b1-3)Gal(b1-4)GlcNAc(b1-2)Man(a1-3)[Gal(b1-4)GlcNAc(b1-3)Gal(b1-4)GlcNAc(b1-3)Gal(b1-4)GlcNAc(b1-2)Man(a1-6)]Man(b1-4)GlcNAc(b1-4)GlcNAc
# Method in brief: as §1
# [11] = biological target: Gal(b1-4)GlcNAc(b1-3)Gal(b1-4)GlcNAc(b1-3)Gal(b1-4)GlcNAc(b1-2)Man(a1-3)[Gal(b1-4)GlcNAc(b1-3)Gal(b1-4)GlcNAc(b1-3)Gal(b1-4)GlcNAc(b1-2)Man(a1-6)]Man(b1-4)GlcNAc(b1-4)[Fuc(a1-6)]GlcNAc
# Method in brief: as §1
# [12] = biological target: Gal(b1-4)GlcNAc(b1-3)Gal(b1-4)GlcNAc(b1-3)Gal(b1-4)GlcNAc(b1-2)[Gal(b1-4)GlcNAc(b1-3)Gal(b1-4)GlcNAc(b1-3)Gal(b1-4)GlcNAc(b1-6)]Man(a1-6)[Gal(b1-4)GlcNAc(b1-3)Gal(b1-4)GlcNAc(b1-3)Gal(b1-4)GlcNAc(b1-2)Man(a1-3)]Man(b1-4)GlcNAc(b1-4)[Fuc(a1-6)]GlcNAc
# Method in brief: as §1
# [13] = biological target: Gal(b1-4)GlcNAc(b1-3)Gal(b1-4)GlcNAc(b1-3)Gal(b1-4)GlcNAc(b1-3)Gal(b1-4)GlcNAc(b1-2)Man(a1-3)[Gal(b1-4)GlcNAc(b1-3)Gal(b1-4)GlcNAc(b1-3)Gal(b1-4)GlcNAc(b1-3)Gal(b1-4)GlcNAc(b1-2)Man(a1-6)]Man(b1-4)GlcNAc(b1-4)GlcNAc
# Method in brief: as §1
# [14] = biological target: Gal(b1-4)GlcNAc(b1-3)Gal(b1-4)GlcNAc(b1-3)Gal(b1-4)GlcNAc(b1-3)Gal(b1-4)GlcNAc(b1-2)Man(a1-3)[Gal(b1-4)GlcNAc(b1-3)Gal(b1-4)GlcNAc(b1-3)Gal(b1-4)GlcNAc(b1-3)Gal(b1-4)GlcNAc(b1-2)Man(a1-6)]Man(b1-4)GlcNAc(b1-4)[Fuc(a1-6)]GlcNAc
# Method in brief: as §1
# [15] = biological target: Gal(b1-4)GlcNAc(b1-3)Gal(b1-4)GlcNAc(b1-3)Gal(b1-4)GlcNAc(b1-3)Gal(b1-4)GlcNAc(b1-2)[Gal(b1-4)GlcNAc(b1-3)Gal(b1-4)GlcNAc(b1-3)Gal(b1-4)GlcNAc(b1-3)Gal(b1-4)GlcNAc(b1-6)]Man(a1-6)[Gal(b1-4)GlcNAc(b1-3)Gal(b1-4)GlcNAc(b1-3)Gal(b1-4)GlcNAc(b1-3)Gal(b1-4)GlcNAc(b1-2)Man(a1-3)]Man(b1-4)GlcNAc(b1-4)[Fuc(a1-6)]GlcNAc
# Method in brief: as §1
# [16] = biological target: Gal(b1-4)GlcNAc(b1-3)Gal(b1-4)GlcNAc(b1-3)Gal(b1-4)GlcNAc(b1-3)Gal(b1-4)GlcNAc(b1-3)Gal(b1-4)GlcNAc(b1-2)Man(a1-3)[Gal(b1-4)GlcNAc(b1-3)Gal(b1-4)GlcNAc(b1-3)Gal(b1-4)GlcNAc(b1-3)Gal(b1-4)GlcNAc(b1-3)Gal(b1-4)GlcNAc(b1-2)Man(a1-6)]Man(b1-4)GlcNAc(b1-4)GlcNAc
# Method in brief: as §1
# [17] = biological target: Gal(b1-4)GlcNAc(b1-3)Gal(b1-4)GlcNAc(b1-3)Gal(b1-4)GlcNAc(b1-3)Gal(b1-4)GlcNAc(b1-3)Gal(b1-4)GlcNAc(b1-2)Man(a1-3)[Gal(b1-4)GlcNAc(b1-3)Gal(b1-4)GlcNAc(b1-3)Gal(b1-4)GlcNAc(b1-3)Gal(b1-4)GlcNAc(b1-3)Gal(b1-4)GlcNAc(b1-2)Man(a1-6)]Man(b1-4)GlcNAc(b1-4)[Fuc(a1-6)]GlcNAc
# Method in brief: as §1
# [18] = biological target: Gal(b1-4)GlcNAc(b1-3)Gal(b1-4)GlcNAc(b1-3)Gal(b1-4)GlcNAc(b1-3)Gal(b1-4)GlcNAc(b1-3)Gal(b1-4)GlcNAc(b1-2)[Gal(b1-4)GlcNAc(b1-3)Gal(b1-4)GlcNAc(b1-3)Gal(b1-4)GlcNAc(b1-3)Gal(b1-4)GlcNAc(b1-3)Gal(b1-4)GlcNAc(b1-6)]Man(a1-6)[Gal(b1-4)GlcNAc(b1-3)Gal(b1-4)GlcNAc(b1-3)Gal(b1-4)GlcNAc(b1-3)Gal(b1-4)GlcNAc(b1-3)Gal(b1-4)GlcNAc(b1-2)Man(a1-3)]Man(b1-4)GlcNAc(b1-4)[Fuc(a1-6)]GlcNAc
# Method in brief: as §1
# [19] = biological target: Gal(b1-4)GlcNAc(b1-3)Gal(b1-4)GlcNAc(b1-3)Gal(b1-4)GlcNAc(b1-3)Gal(b1-4)GlcNAc(b1-3)Gal(b1-4)GlcNAc(b1-3)Gal(b1-4)GlcNAc(b1-2)Man(a1-3)[Gal(b1-4)GlcNAc(b1-3)Gal(b1-4)GlcNAc(b1-3)Gal(b1-4)GlcNAc(b1-3)Gal(b1-4)GlcNAc(b1-3)Gal(b1-4)GlcNAc(b1-3)Gal(b1-4)GlcNAc(b1-2)Man(a1-6)]Man(b1-4)GlcNAc(b1-4)GlcNAc
# Method in brief: as §1
# [20] = biological target: Gal(b1-4)GlcNAc(b1-3)Gal(b1-4)GlcNAc(b1-3)GalNAc
# Method in brief: as §1
# [21] = biological target: Gal(b1-4)GlcNAc(b1-3)Gal(b1-4)GlcNAc(b1-3)[Gal(b1-4)GlcNAc(b1-3)Gal(b1-4)GlcNAc(b1-6)]GalNAc
# Method in brief: as §1
# [22] = biological target: Gal(b1-4)GlcNAc(b1-3)Gal(b1-4)GlcNAc(b1-6)[Gal(b1-3)]GalNAc
# Method in brief: as §1
binder,measurement,setting,value
B1,glycan array binding signal (z-score),[1],0.026
same,glycan array binding signal (z-score),[2],-0.238
same,glycan array binding signal (z-score),[3],-0.194
same,glycan array binding signal (z-score),[4],-0.235
same,glycan array binding signal (z-score),[5],2.52
same,glycan array binding signal (z-score),[6],-0.173
same,glycan array binding signal (z-score),[7],-0.136
same,glycan array binding signal (z-score),[8],-0.207
same,glycan array binding signal (z-score),[9],-0.252
same,glycan array binding signal (z-score),[10],1.89
same,glycan array binding signal (z-score),[11],-0.291
same,glycan array binding signal (z-score),[12],-0.245
same,glycan array binding signal (z-score),[13],-0.273
same,glycan array binding signal (z-score),[14],-0.279
same,glycan array binding signal (z-score),[15],-0.269
same,glycan array binding signal (z-score),[16],-0.275
same,glycan array binding signal (z-score),[17],-0.263
same,glycan array binding signal (z-score),[18],-0.21
same,glycan array binding signal (z-score),[19],-0.283
same,glycan array binding signal (z-score),[20],1.13
same,glycan array binding signal (z-score),[21],1.8
same,glycan array binding signal (z-score),[22],2.31

# From the supplement of paper PMC8728848
